Where a name gives a salt, the structure may show the parent alone. For at least one compound, name, drawing or mass did not settle the structure. Some entries repeat one wording, which the source may state once for all of them.
Assays:
Assay type in all cases: biochemical
Conditions in all cases: selectivity ratio versus calpain I
[1] = biological target: T1, cathepsin L isolated from human liver (Homo sapiens, UniProt P07711); assay: Cathepsin L kinetic fluorescence enzyme inhibition assay
T1 construct: cathepsin L—isolated from human liver; purchased Calbiochem 219402; host or cells: human liver (tissue isolate)
T1 sequence (P07711 114-333): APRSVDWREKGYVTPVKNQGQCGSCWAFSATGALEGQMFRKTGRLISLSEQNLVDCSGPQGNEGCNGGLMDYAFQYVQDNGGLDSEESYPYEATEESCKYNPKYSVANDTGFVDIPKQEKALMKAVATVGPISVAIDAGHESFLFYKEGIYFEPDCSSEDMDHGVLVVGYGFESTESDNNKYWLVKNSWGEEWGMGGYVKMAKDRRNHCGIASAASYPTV
Method: (§1) The following solutions and buffers were employed: • HBS (for 40 ml): 800 μl M HEPES; 2.16 ml 100 mM KCl; 4.8 ml 1M NaCl; 3.59 ml 5% glucose; 60 μl μM MgSO4; 400 μl 100 mM Na pyruvate, 28.19 ml water; pH 7.2-7.5. • lysis buffer (for 20 ml): 400 μl M Tris pH 8.2; 2.74 ml 1M NaCl; 520 μl 0.5M EDTA; 2 ml 10% triton X-100; 0.8 ml (=1:25) CompletePlus (1 tablet/2 ml H2O); 200 μl 100 mM Pefabloc; 13.34 ml water, pH 8.2. • TBST (10×) (for 1 l): 100 mM Tris (12.1 g); 1.5M NaCl (87 g); 1% Tween 20 (10 g), adjusted to pH 8. I Enzyme Inhibition In Vitro: • Testing for blockade of the corresponding enzymic activities was carried out by means of kinetic fluorescence assays (excitation 390 nm, emission 460 nm). • Apparent Ki values were calculated from the experimentally determined IC50 values by the Cheng-Prussoff relation assuming a reversible competitive enzyme inhibition. The Km values of the substrates used under the assay conditions indicated above were: 90 μM (Z-Phe-Arg-AMC, cathepsin B), 10 μM (Z-Gly-Pro-Arg-AMC, cathepsin K), 2 μM (Z-Phe-Arg-AMC, cathepsin L), and 30 μM (Z-Val-Val-Arg-AMC, cathepsin S). • The indicated Ki values are averages of the inhibition constants calculated on the basis of 2 to 4 independent dose-effect plots.
(§2) The following assays were used: • 1. Calpain I: • 20 nM calpain-I—isolated from human erythrocytes (Calbiochem #208713), 100 μM Suc-Leu-Tyr-AMC (Bachem #1-1355) as substrate in buffer with 62 mM imidazole, 0.3 mM CaCl2, 0.10% CHAPS, 0.05% BSA, 1 mM DTT at pH 7.3 and room temperature. • 2. Cathepsin B: • 0.25 nM cathepsin B—isolated from human liver (Calbiochem #219362), 100 μM Z-Phe-Arg-AMC (Bachem #I-1160) as substrate 50 mM MES, 2 mM EDTA, 0.05% Brij 35, 2.5 mM L-cysteine, pH 6.0, room temperature. • 3. Cathepsin K: • 3 nM cathepsin K—activated from recombinant human procathepsin K from E. coli (Calbiochem #342001), 10 μM Z-Gly-Pro-Arg-AMC (Biomol #P-142) as substrate in 50 mM MES, 2 mM EDTA, 0.05% Brij 35, 2.5 mM L-cysteine, pH 6.0, room temperature. • 4. Cathepsin L: • 1 nM cathepsin L—isolated from human liver (Calbiochem #219402), 2 μM Z-Phe-Arg-AMC (Bachem #1-1160) as substrate in 50 mM MES, 2 mM EDTA, 0.05% Brij 35, 2.5 mM L-cysteine, pH 6.0, room temperature. • 5. Cathepsin S: • 0.5 nM recombinant human cathepsin S from E. coli (Calbiochem #219343), 20 μM Z-Val-Val-Arg-AMC (Bachem #1-1540) as substrate in 50 mM MES, 2 mM EDTA, 0.05% Brij 35, 2.5 mM L-cysteine, pH 6.0, room temperature. • The results of the in vitro determination are indicated in Table 1. The following abbreviations are used in Table 1: • The “Calpain activity” column, ++ stands for a calpain Ki (Ki(calpain)) of ≦40 nM and + means: 40 nM<Ki(Calpain)≦100 nM. • The “Sel. cat. B” column indicates the Ki(cathepsin B)/Ki(calpain) ratio. In this connection, ++ means a Ki(cathepsin B)/Ki(calpain) ratio of ≧30 and + means 10≦Ki(cathepsin B)/Ki(calpain)<30. • The “Sel. cat. K” column indicates the Ki(cathepsin K)/Ki(calpain) ratio. In this connection, ++ means a Ki(cathepsin K)/Ki(calpain) ratio of ≧30 and + means 10≦Ki(cathepsin K)/Ki(calpain)<30. • The “Sel. cat. L” column indicates the Ki(cathepsin L)/Ki(calpain) ratio. In this connection, ++ means a Ki(cathepsin L)/Ki(calpain) ratio of ≧50 and + means 30≦Ki(cathepsin L)/Ki(calpain)<50. • The “Sel. cat. S” column indicates the Ki(cathepsin S)/Ki(calpain) ratio. In this connection, ++ means a Ki(cathepsin S)/Ki(calpain) ratio of ≧100 and + means 50≦Ki(cathepsin S)/Ki(calpain)<100.

[2] = biological target: T2, recombinant human cathepsin S (Homo sapiens, UniProt P25774); assay: Cathepsin S kinetic fluorescence enzyme inhibition assay
T2 construct: purchased Calbiochem 219343; host or cells: E. coli
T2 sequence (P25774 115-331): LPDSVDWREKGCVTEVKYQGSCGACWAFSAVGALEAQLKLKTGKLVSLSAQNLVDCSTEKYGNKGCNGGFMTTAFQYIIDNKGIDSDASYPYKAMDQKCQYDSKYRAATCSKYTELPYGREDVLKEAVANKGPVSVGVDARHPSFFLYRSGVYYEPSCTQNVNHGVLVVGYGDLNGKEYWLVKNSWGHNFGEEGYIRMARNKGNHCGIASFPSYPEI
Method: as §1, §2

[3] = biological target: T3, cathepsin K activated from recombinant human procathepsin K (Homo sapiens, UniProt P43235); assay: Cathepsin K kinetic fluorescence enzyme inhibition assay
T3 construct: purchased Calbiochem 342001; host or cells: E. coli
T3 sequence (P43235 115-329): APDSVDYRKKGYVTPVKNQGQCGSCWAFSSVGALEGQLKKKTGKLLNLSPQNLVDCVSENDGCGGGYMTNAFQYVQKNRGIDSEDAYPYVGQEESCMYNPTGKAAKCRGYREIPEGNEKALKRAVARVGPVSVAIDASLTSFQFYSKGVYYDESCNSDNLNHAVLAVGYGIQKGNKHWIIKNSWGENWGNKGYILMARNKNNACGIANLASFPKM
Method: as §1
The following assays were used: • 1. […]

[4] = biological target: T4, cathepsin B isolated from human liver (Homo sapiens, UniProt P07858); assay: Cathepsin B kinetic fluorescence enzyme inhibition assay
T4 construct: cathepsin B—isolated from human liver; purchased Calbiochem 219362; host or cells: human liver (tissue isolate)
Method: as §1
The following assays were used: • 1. Calpain I: • 20 nM calpain-I—isolated from human erythrocytes (Calbiochem #208713), 100 μM Suc-Leu-Tyr-AMC (Bachem #1-1355) as substrate in buffer with 62 mM imidazole, 0.3 mM CaCl2, 0.10% CHAPS, 0.05% BSA, 1 mM DTT at pH 7.3 and room temperature. • 2. Cathepsin B: • 0.25 nM cathepsin B—isolated from human liver (Calbiochem #219362), 100 μM Z-Phe-Arg-AMC (Bachem #I-1160) as substrate 50 mM MES, 2 mM EDTA, 0.05% Brij 35, 2.5 mM L-cysteine, pH 6.0, room temperature. • 3. Cathepsin K: • 3 nM cathepsin K—activated from recombinant human procathepsin K from E. coli (Calbiochem #342001), 10 μM Z-Gly-Pro-Arg-AMC (Biomol #P-142) as substrate in 50 mM MES, 2 mM EDTA, 0.05% Brij 35, 2.5 mM L-cysteine, pH 6.0, room temperature. • 4. […]

SMILES	Sel cat. L (Ki(cathepsin L)/Ki(calpain) ratio) [1]	Sel cat. S (Ki(cathepsin S)/Ki(calpain) ratio) [2]	Sel cat. K (Ki(cathepsin K)/Ki(calpain) ratio) [3]	Sel cat. B (Ki(cathepsin B)/Ki(calpain) ratio) [4]
CCN(CC)c1ccc(-c2cn(-c3ncccc3C(=O)NC(Cc3ccccc3)C(=O)C(N)=O)cn2)cc1 (centres unmarked) [Example 16, N-(3-Amino-1-benzyl-2,3-dioxopropyl)-2-{4-[4-(diethylamino)phenyl]-1H-imidazol-1-yl}nicotinamide hydrochloride]	+ (30≦Ki(cathepsin L)/Ki(calpain)<50)	+ (50≦Ki(cathepsin S)/Ki(calpain)<100)	–	–
NC(=O)C(=O)C(Cc1ccccc1)NC(=O)c1cccnc1-n1cnc(-c2cccc(Cl)c2)c1 (centres unmarked) [Example 22, N-(3-Amino-1-benzyl-2,3-dioxopropyl)-2-[4-(3-chlorophenyl)-1H-imidazol-1-yl]nicotinamide]	+ (30≦Ki(cathepsin L)/Ki(calpain)<50)	++ (Ki(cathepsin S)/Ki(calpain) ratio of ≧100)	–	–
NC(=O)C(=O)C(Cc1ccc(OC(F)(F)F)cc1)NC(=O)c1cccnc1-n1ccc(-c2cccc3ccccc23)n1 (centres unmarked) [Example 138, N-[3-Amino-2,3-dioxo-1-({4-[(trifluoromethyl)oxy]phenyl}methyl)propyl]-2-(3-naphthalen-1-yl-1H-pyrazol-1-yl)pyridine-3-carboxamide]	++ (Ki(cathepsin L)/Ki(calpain) ratio of ≧50)	++ (Ki(cathepsin S)/Ki(calpain) ratio of ≧100)	++ (Ki(cathepsin K)/Ki(calpain) ratio of ≧30)	++ (Ki(cathepsin B)/Ki(calpain) ratio of ≧30)
NC(=O)C(=O)C(Cc1ccccc1)NC(=O)c1cc(Cl)cnc1-n1cnc(-c2ccccc2)c1 (centres unmarked) [Example 23, N-(3-Amino-1-benzyl-2,3-dioxopropyl)-5-chloro-2-(4-phenyl-1H-imidazol-1-yl)nicotinamide hydrochloride]	+ (30≦Ki(cathepsin L)/Ki(calpain)<50)	–	–	–
O=C[C@H](Cc1ccccc1)NC(=O)c1cccnc1-n1ccc(-c2ccccc2)n1 [Example 105, N-[(1S)-1-Formyl-2-phenylethyl]-2-(3-phenyl-1H-pyrazol-1-yl)pyridine-3-carboxamide]	++ (Ki(cathepsin L)/Ki(calpain) ratio of ≧50)	++ (Ki(cathepsin S)/Ki(calpain) ratio of ≧100)	–	++ (Ki(cathepsin B)/Ki(calpain) ratio of ≧30)
NC(=O)C(=O)C(Cc1ccccc1)NC(=O)c1cccnc1-n1ccc(-c2ccc3ocnc3c2)n1 (centres unmarked) [Example 129, N-[3-Amino-2,3-dioxo-1-(phenylmethyl)propyl]-2-[3-(1,3-benzoxazol-5-yl)-1H-pyrazol-1-yl]pyridine-3-carboxamide]	–	++ (Ki(cathepsin S)/Ki(calpain) ratio of ≧100)	–	–
COc1ccc(CC(NC(=O)c2cccnc2-n2ccc(-c3cccc(C(F)(F)F)c3)n2)C(=O)C(N)=O)cc1 (centres unmarked) [Example 126, N-(3-Amino-1-{[4-(methyloxy)phenyl]methyl}-2,3-dioxopropyl)-2-{3-[3-(trifluoromethyl)phenyl]-1H-pyrazol-1-yl}pyridine-3-carboxamide]	++ (Ki(cathepsin L)/Ki(calpain) ratio of ≧50)	++ (Ki(cathepsin S)/Ki(calpain) ratio of ≧100)	++ (Ki(cathepsin K)/Ki(calpain) ratio of ≧30)	++ (Ki(cathepsin B)/Ki(calpain) ratio of ≧30)
